The target of one experiment is T1, RIP1 (Homo sapiens, UniProt Q13546).
T1 construct: purchased DiscoverX (KINOMEscan service); host or cells: E. coli BL21-derived (T7 phage) or HEK293
T1 sequence (Q13546 1-671): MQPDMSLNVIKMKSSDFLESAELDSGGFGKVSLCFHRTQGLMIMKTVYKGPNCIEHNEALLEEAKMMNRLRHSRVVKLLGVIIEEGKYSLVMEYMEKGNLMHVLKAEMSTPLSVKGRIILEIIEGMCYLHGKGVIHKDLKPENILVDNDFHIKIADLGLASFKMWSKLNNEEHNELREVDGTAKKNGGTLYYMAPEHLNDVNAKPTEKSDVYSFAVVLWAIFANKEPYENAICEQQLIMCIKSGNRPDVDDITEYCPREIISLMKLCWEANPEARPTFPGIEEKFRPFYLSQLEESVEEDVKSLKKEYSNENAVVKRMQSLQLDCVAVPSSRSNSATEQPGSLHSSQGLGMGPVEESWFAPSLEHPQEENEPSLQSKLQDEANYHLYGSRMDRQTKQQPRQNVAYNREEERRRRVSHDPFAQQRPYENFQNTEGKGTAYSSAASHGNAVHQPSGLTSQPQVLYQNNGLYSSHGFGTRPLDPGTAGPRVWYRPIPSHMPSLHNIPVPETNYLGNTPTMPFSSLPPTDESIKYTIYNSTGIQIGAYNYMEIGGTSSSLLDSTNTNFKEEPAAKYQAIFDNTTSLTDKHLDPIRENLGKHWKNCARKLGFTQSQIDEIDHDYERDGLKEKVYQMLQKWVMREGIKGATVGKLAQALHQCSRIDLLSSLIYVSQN
Put plainly: KINOMEscan binding assay, RIP1. As to conditions: equilibrium dissociation constant, class symbols.

In another experiment the target is T2, RIP3 (Homo sapiens, UniProt Q9Y572).
T2 construct: purchased DiscoverX (KINOMEscan service); host or cells: E. coli BL21-derived (T7 phage) or HEK293
Put plainly: KINOMEscan binding assay, RIP3. As to conditions: equilibrium dissociation constant, class symbols. The source says:
The Hill Slope was set to −1.

In US12583836B2 (Anaxis Pharma Pty Ltd, priority 2020, dated 2026) one finds Kd data, which are given here for 26 compounds.

pKd: −log10 of the molar value. Some results are limits rather than exact numbers.

T2 sequence (Q9Y572 whole entry): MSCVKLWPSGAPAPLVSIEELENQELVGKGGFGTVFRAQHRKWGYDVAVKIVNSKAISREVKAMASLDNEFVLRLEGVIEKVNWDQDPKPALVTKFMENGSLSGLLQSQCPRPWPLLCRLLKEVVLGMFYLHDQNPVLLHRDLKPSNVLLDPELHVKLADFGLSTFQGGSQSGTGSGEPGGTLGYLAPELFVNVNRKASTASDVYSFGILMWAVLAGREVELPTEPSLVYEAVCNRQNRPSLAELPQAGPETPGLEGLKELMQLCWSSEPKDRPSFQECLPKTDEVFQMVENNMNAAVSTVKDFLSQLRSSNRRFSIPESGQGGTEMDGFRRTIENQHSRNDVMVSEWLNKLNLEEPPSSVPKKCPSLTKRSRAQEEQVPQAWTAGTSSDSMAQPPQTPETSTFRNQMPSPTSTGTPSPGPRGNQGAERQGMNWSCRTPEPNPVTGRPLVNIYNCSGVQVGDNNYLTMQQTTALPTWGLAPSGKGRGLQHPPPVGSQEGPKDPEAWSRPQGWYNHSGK

As to `CCS(=O)(=O)Nc1ccc(-c2n[nH]c(Nc3cnccn3)c2C(N)=O)cc1OCC1CCN(C(C)=O)CC1` [Compound 7, 3-(3-((1-acetylpiperidin-4-yl)methoxy)-4-(ethylsulfonamido)phenyl)-5-(pyrazin-2-ylamino)-1H-pyrazole-4-carboxamide], the negative-log Kd (pKd) on RIP1 and at RIP3 was below 4.52 in each case.

Consider `CCS(=O)(=O)Nc1ccc(-c2n[nH]c(Nc3cccc(C(F)(F)F)n3)c2C(N)=O)cc1OCC1CCCC1` [Compound 10, 3-(3-(cyclopentylmethoxy)-4-(ethylsulfonamido)phenyl)-5-((6-(trifluoromethyl)pyridin-2-yl)amino)-1H-pyrazole-4-carboxamide], for which the pKd at RIP1 and at RIP3 was below 4.52 throughout.

Regarding `CCS(=O)(=O)Nc1ccc(-c2n[nH]c(Nc3cccc(C(F)(F)F)n3)c2C(N)=O)cc1OCC(C)C` [Compound 12, 3-(4-(ethylsulfonamido)-3-isobutoxyphenyl)-5-((6-(trifluoromethyl)pyridin-2-yl)amino)-1H-pyrazole-4-carboxamide], the pKd at RIP1 and at RIP3 was below 4.52 throughout.

Take `CCS(=O)(=O)Nc1ccc(-c2n[nH]c(Nc3cccc(C(F)(F)F)n3)c2C(N)=O)cc1OCc1ccncc1` [Compound 16, 3-(4-(ethylsulfonamido)-3-(pyridin-4-ylmethoxy)phenyl)-5-((6-(trifluoromethyl)pyridin-2-yl)amino)-1H-pyrazole-4-carboxamide]: the pKd on RIP1 and on RIP3 was below 4.52 throughout.

As to `CCS(=O)(=O)Nc1ccc(-c2n[nH]c(Nc3ccccn3)c2C(N)=O)cc1OCc1ccccc1` [Compound 20, 3-(3-(benzyloxy)-4-(ethylsulfonamido)phenyl)-5-(pyridin-2-ylamino)-1H-pyrazole-4-carboxamide], the negative logarithm of the Kd (pKd) at RIP1 and on RIP3 was below 4.52 each time.

For the compound `CCS(=O)(=O)Nc1ccc(-c2n[nH]c(Nc3cnccn3)c2C(N)=O)cc1OCc1cccc(F)c1` [Compound 26, 3-(4-(ethylsulfonamido)-3-((3-fluorobenzyl)oxy)phenyl)-5-(pyrazin-2-ylamino)-1H-pyrazole-4-carboxamide], the pKd at RIP1 and at RIP3 was below 4.52 in each case.

Take `CCS(=O)(=O)Nc1ccc(-c2n[nH]c(Nc3cnccn3)c2C(N)=O)cc1OCc1ccncc1` [Compound 28, 3-(4-(ethylsulfonamido)-3-(194yridine-4-ylmethoxy)phenyl)-5-(pyrazin-2-ylamino)-1H-pyrazole-4-carboxamide]: the pKd at RIP1 and at RIP3 was below 4.52 in each case.

On to `CCS(=O)(=O)Nc1ccc(-c2n[nH]c(Nc3ccccn3)c2C(N)=O)cc1OCc1ccc(F)cc1` [Compound 30, 3-(4-(ethylsulfonamido)-3-((4-fluorobenzyl)oxy)phenyl)-5-(pyridin-2-ylamino)-1H-pyrazole-4-carboxamide], for which the pKd on RIP1 and at RIP3 was below 4.52 throughout.

`CCS(=O)(=O)Nc1ccc(-c2n[nH]c(Nc3cnccn3)c2C(N)=O)cc1OCc1cccnc1` [Compound 32, 3-(4-(ethylsulfonamido)-3-(194yridine-3-ylmethoxy)phenyl)-5-(pyrazin-2-ylamino)-1H-pyrazole-4-carboxamide]: the negative logarithm of the Kd (pKd) at RIP1 and on RIP3 was below 4.52 throughout.

As to `CCS(=O)(=O)Nc1ccc(-c2n[nH]c(Nc3ccccn3)c2C(N)=O)cc1OCC1CCCCC1` [Compound 35, 3-(3-(cyclohexylmethoxy)-4-(ethylsulfonamido)phenyl)-5-(pyridin-2-ylamino)-1H-pyrazole-4-carboxamide], the pKd at RIP1 and on RIP3 was below 4.52 in each case.

Consider `CCS(=O)(=O)Nc1ccc(-c2n[nH]c(Nc3ccccn3)c2C(N)=O)cc1OCC(C)C` [Compound 37, 3-(4-(ethylsulfonamido)-3-isobutoxyphenyl)-5-(pyridin-2-ylamino)-1H-pyrazole-4-carboxamide], for which the pKd on RIP1 and on RIP3 was below 4.52 in each case.

`CCS(=O)(=O)Nc1ccc(-c2n[nH]c(Nc3cnccn3)c2C(N)=O)cc1OCC1CCCC1` [Compound 40, 3-(3-(cyclopentylmethoxy)-4-(ethylsulfonamido)phenyl)-5-(pyrazin-2-ylamino)-1H-pyrazole-4-carboxamide]: the pKd at RIP1 and at RIP3 was below 4.52 each time.

Take `CCS(=O)(=O)Nc1ccc(-c2n[nH]c(Nc3cnccn3)c2C(N)=O)cc1OCC(C)C` [Compound 45, 3-(4-(ethylsulfonamido)-3-isobutoxyphenyl)-5-(pyrazin-2-ylamino)-1H-pyrazole-4-carboxamide]: the negative-log Kd (pKd) (commonly −log10 of the Kd, conventionally taken in molar units) was 4.52 to 6.00 on RIP1 and below 4.52 at RIP3.

In the case of `CCS(=O)(=O)Nc1ccc(-c2n[nH]c(Nc3cnccn3)c2C(N)=O)cc1OCC1CCCCC1` [Compound 47, 3-(3-(cyclohexylmethoxy)-4-(ethylsulfonamido)pheny)-5-(pyrazin-2-ylamino)-1H-pyrazole-4-carboxamide], the negative-log Kd (pKd) on RIP1 and on RIP3 was below 4.52 throughout.

As for `NC(=O)c1c(-c2ccc(NS(=O)(=O)CC(F)F)cc2)n[nH]c1Nc1cccc(C(F)(F)F)n1` [Compound 49, 3-(4-((2,2-difluoroethyl)sulfonamido)phenyl)-5-((6-(trifluoromethyl)pyridin-2-yl)amino)-1H-pyrazole-4-carboxamide], the pKd on RIP1 is below 4.52; on RIP3, 4.52 to 6.00.

Consider `NC(=O)c1c(-c2ccc(NS(=O)(=O)C3CC3)cc2)n[nH]c1Nc1cccc(C(F)(F)F)n1` [Compound 52, 3-(4-(cyclopropanesulfonamido)phenyl)-5-((6-(trifluoromethyl)pyridin-2-yl)amino)-1H-pyrazole-4-carboxamide], for which the pKd at RIP1 is below 4.52; on RIP3, 4.52 to 6.00.

Take `NC(=O)c1c(-c2ccc(NS(=O)(=O)Cc3ccc(Cl)c(Cl)c3)cc2)n[nH]c1Nc1cccc(C(F)(F)F)n1` [Compound 56, 3-(4-((3,4-dichlorophenyl)methylsulfonamido)phenyl)-5-((6-(trifluoromethyl)pyridin-2-yl)amino)-1H-pyrazole-4-carboxamide]: the pKd was below 4.52 on RIP1 and 4.52 to 6.00 on RIP3.

Consider `NC(=O)c1c(-c2ccc(NS(=O)(=O)Cc3cccc(Cl)c3)cc2)n[nH]c1Nc1cccc(C(F)(F)F)n1` [Compound 59, 3-(4-(((3-chlorophenyl)methyl)sulfonamido)phenyl)-5-((6-(trifluoromethyl)pyridin-2-yl)amino)-1H-pyrazole-4-carboxamide], for which the negative logarithm of the Kd (pKd) on RIP1 is below 4.52; on RIP3 it was 4.52 to 6.00.

For the compound `CCS(=O)(=O)Nc1ccc(-c2n[nH]c(Nc3cnc4cc(Cl)ccc4n3)c2C(N)=O)cc1` [Compound 65, 5-((6-chloroquinoxalin-2-yl)amino)-3-(4-(ethylsulfonamido)phenyl)-1H-pyrazole-4-carboxamide], the negative-log Kd (pKd) on RIP1 and at RIP3 was below 4.52 each time.

`NC(=O)c1c(-c2ccc(NS(=O)(=O)Cc3ccc(Cl)cc3)cc2)n[nH]c1Nc1cnccn1` [Compound 70, 3-(4-(((4-chlorophenyl)methyl)sulfonamido)phenyl)-5-(pyrazin-2-ylamino)-1H-pyrazole-4-carboxamide]: the pKd at RIP1 and at RIP3 was below 4.52 each time.

Regarding `NC(=O)c1c(-c2ccc(NS(=O)(=O)C3CCCCC3)cc2)n[nH]c1Nc1cnccn1` [Compound 74, 3-(4-(cyclohexanesulfonamido)phenyl)-5-(pyrazin-2-ylamino)-1H-pyrazole-4-carboxamide], the pKd at RIP1 is below 4.52; at RIP3, 4.52 to 6.00.

As for `NC(=O)c1c(-c2ccc(NS(=O)(=O)Cc3ccccc3)cc2)n[nH]c1Nc1cnccn1` [Compound 77, 3-(4-((phenylmethyl)sulfonamido)phenyl)-5-(pyrazin-2-ylamino)-1H-pyrazole-4-carboxamide], the negative logarithm of the Kd (pKd) on RIP1 was below 4.52; on RIP3, 4.52 to 6.00.

For `NC(=O)c1c(-c2ccc(NS(=O)(=O)Cc3ccc(OC(F)(F)F)cc3)cc2)n[nH]c1Nc1cnccn1` [Compound 80, 5-(pyrazin-2-ylamino)-3-(4-(((4-(trifluoromethoxy)phenyl)methyl)sulfonamido)phenyl)-1H-pyrazole-4-carboxamide], the pKd at RIP1 and on RIP3 was below 4.52 in each case.

Take `NC(=O)c1c(-c2ccc(NS(=O)(=O)Cc3cccc(C(F)(F)F)c3)cc2)n[nH]c1Nc1cnccn1` [Compound 83, 5-[(pyrazin-2-yl)amino]-3-(4-{[3-(trifluoromethyl)phenyl]methanesulfonamido}phenyl)-1H-pyrazole-4-carboxamide]: the pKd on RIP1 and at RIP3 was below 4.52 throughout.

For `CCS(=O)(=O)Nc1ccc(-c2n[nH]c(Nc3ccc4ccccc4n3)c2C(N)=O)cc1` [Compound 89, 3-(4-(ethylsulfonamido)phenyl)-5-(quinolin-2-ylamino)-1H-pyrazole-4-carboxamide], the pKd on RIP1 and at RIP3 was 4.52 to 6.00 throughout.

For `CCOc1cccc(Nc2[nH]nc(-c3ccc(NS(=O)(=O)CC)cc3)c2C(N)=O)n1` [Compound 96, 5-((6-ethoxypyridin-2yl)amino)-3-(4-(ethylsulfonamido)phenyl)-1H-pyrazole-4-carboxamide], the pKd was below 4.52 at RIP1 and 4.52 to 6.00 at RIP3.
